The supplement of paper PMC12340641
Over roughly 1,000 compounds, “relative growth recovery (pomalidomide 10 uM = 100%, DMSO = 0%)” has its median near -1.6; the highest 2% begin near 21. The list shows a part of the results.

system: HEK293FT dCK*-IKZF1; test: relative growth recovery (pomalidomide 10 uM = 100%, DMSO = 0%); higher = more growth rescue (IKZF1 fusion degradation); conditions: compound concentration: 5 uM; AraC concentration: 0.3 uM; overnight pretreatment + 4 days AraC
Protocol: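 Growth recovery screen of the molecular-glue-like (Specs) library. HEK293FT cells expressing a dCK*-IKZF1 fusion (primary) or dCK* alone (counter) were pretreated overnight with compound at 5 uM, then given 0.3 uM AraC for 4 days. Hoechst nuclei were counted by imaging. Primary: normalised to pomalidomide (100%) and DMSO (0%), mean of 2 replicates. Counter: normalised to no-AraC (100%) and AraC+DMSO (0%), single replicate.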

SMILES | relative growth recovery [%]
CCCCc1cnc(Nc2cccc(C3CCN(C(=O)[C@@H]4CCCCN4)CC3)n2)s1 | -11.4
CN1CCN(CC(=O)N2CCC(c3cccc(Nc4ncc(-c5ccccc5)s4)n3)CC2)CC1 | -17.9
Cc1nc(Nc2cccc(C3CCCN3C(=O)c3ccc(=O)n(C)n3)n2)sc1C (stereo not given) | 5.83
O=C(CC1C=CCC1)N1CCC(c2cccc(Nc3nccs3)n2)CC1 (stereo not given) | -6.62
Cc1cc(NS(=O)(=O)c2ccc(NC(=O)c3cccnc3)cc2)nc(C)n1 | 1.28
Cc1ccnc(NS(=O)(=O)c2ccc(N3C(=O)C4CC=CCC4C3=O)cc2)n1 (stereo not given) | 3.23
Cc1cnc(Nc2cccc(C3CN(C(=O)C4CCCO4)CCO3)n2)s1 (stereo not given) | -8.88
O=C(Nc1ccc(S(=O)(=O)Nc2ccccn2)cc1)c1cc2ccccc2o1 | 1.15
Cc1cc(C)c2[nH]c3nc(SCC(=O)Nc4cccc(Cl)c4C)nnc3c2c1 | -14.9
COc1ccc(C(=O)Nc2ccc(S(=O)(=O)Nc3ccccn3)cc2)cc1 | -5.12
Cc1cc(C)nc(NS(=O)(=O)c2ccc(NC(=O)c3ccc(S(=O)(=O)N(C)C)cc3)cc2)n1 | -5.78
O=C1CCCC/C1=C/Nc1ccc(S(=O)(=O)Nc2cnc3ccccc3n2)cc1 | -2.63
Cc1cnc(Nc2cccc(C3CN(C(=O)Cn4c(C(F)(F)F)nc5ccccc54)CCO3)n2)s1 (stereo not given) | 0.825
Cc1cc(C)n(CC(=O)N2CCOC(c3cccc(Nc4ncc(C)s4)n3)C2)c(=O)n1 (stereo not given) | 2.22
COCC(=O)N[C@H]1CCC[C@H]1C(=O)N1CCOC(c2cccc(Nc3ncc(C)s3)n2)C1 (stereo not given in full) | 0.57
CC(=O)Nc1ccc(S(=O)(=O)Nc2nc(C)cc(C)n2)cc1 | 1.11
Cc1cnc(Nc2cccc(C3CCN(C(=O)C4(NC(=O)C(C)(C)C)CCCCC4)CC3)n2)s1 | -12.6
O=C(COc1cccc(Cl)c1)Nc1ccc(S(=O)(=O)Nc2ncccn2)cc1 | -2.65
CC(C)Nc1nc(NC(C)C)nc(NS(=O)(=O)c2ccc(N)cc2)n1 | -1.87
CC(C)C(=O)Nc1ccc(S(=O)(=O)Nc2ncccn2)cc1 | -3.75
Cc1ccc2[nH]nc(C(=O)N3CCOC(c4cccc(Nc5ncc(Cc6ccccc6)s5)n4)C3)c2c1 (stereo not given) | -18.5
O=C1CCC(N2C(=O)c3ccc(N4CCN(C5CCC(C(=O)O)CC5)CC4)cc3C2=O)C(=O)N1 (stereo not given) | 2.25
Cc1c(Cl)cccc1NC(=O)CSc1nnc2c(n1)[nH]c1ccc(F)cc12 | 1.04
COc1ccc(/C=C/C(=O)NC(=S)Nc2ccc(S(=O)(=O)Nc3nc(C)cc(C)n3)cc2)cc1OC | -4.8

SMILES | relative growth recovery [%]
Cc1cnc(Nc2cccc(C3CN(C(=O)C4CCCC4)CCO3)n2)s1 (stereo not given) | -12.3
Cc1cnc(Nc2cccc(C3CN(C(=O)C45CC6CC(CC(C6)C4)C5)CCO3)n2)s1 (stereo not given) | -2.75
COc1cc(NS(=O)(=O)c2ccc(NC(C)=O)cc2)nc(OC)n1 | -0.035
CN(CCCN1CCNCC1)c1cccc2c1C(=O)N(C1CCC(=O)NC1=O)C2=O (stereo not given) | 1.56
CCc1ccccc1OCC(=O)Nc1ccc(S(=O)(=O)Nc2ncccn2)cc1 | -3.74
Cc1cc(Cl)ccc1OC(C)C(=O)Nc1ccc(S(=O)(=O)Nc2ccccn2)cc1 (stereo not given) | 0.47
CCCOc1ccc(C(=O)Nc2ccc(S(=O)(=O)Nc3ncccn3)cc2)cc1 | -3.33
Cc1nc(Nc2cccc(C3CCN(C(=O)Cc4ccc(F)cc4)CC3)n2)sc1C | -4.92
CCCc1cnc(Nc2cccc(C3CCN(C(=O)c4n[nH]c5ccc(C)cc45)CC3)n2)s1 | -3.85
Cc1cnc(C(=O)N2CCCC2c2cccc(Nc3nc(C)c(C)s3)n2)cn1 (stereo not given) | 4.79
NC(=O)CN1CCCC1c1cccc(Nc2nccs2)n1 (stereo not given) | -20.3
Cc1ccc(OCC(=O)Nc2ccc(S(=O)(=O)Nc3ncccn3)cc2)c(C)c1 | -0.14
CCCc1cnc(Nc2cccc(C3CCN(C(=O)[C@H]4CCCC[C@H]4C(N)=O)CC3)n2)s1 | -18.1
CCC(C)C(=O)Nc1ccc(S(=O)(=O)Nc2nccc(C)n2)cc1 (stereo not given) | 0.82
Cc1ccnc(NS(=O)(=O)c2ccc(NC(=O)CCc3ccccc3)cc2)n1 | -1.39
CC(=O)N1CCC(c2cccc(Nc3nc(C)c(C)s3)n2)CC1 | -9.57
Cc1ccc(C)c(OCC(=O)Nc2ccc(S(=O)(=O)Nc3nc(C)cc(C)n3)cc2)c1 | -2.19
Cc1cccc(C(=O)Nc2ccc(S(=O)(=O)Nc3ncccn3)cc2)c1 | -1.64
COc1ccc(NC(=O)CN2CCC(c3cccc(Nc4ncc(C)s4)n3)CC2)cc1 | -11
Cc1cc(NS(=O)(=O)c2ccc(NC(=O)c3ccccc3)cc2)nc(C)n1 | -5.71
O=C(COc1ccc(F)cc1)N1CCCC1c1cccc(Nc2nccs2)n1 (stereo not given) | 15.1
COc1ccc(CCC(=O)N2CCOC(c3cccc(Nc4ncc(C)s4)n3)C2)cc1 (stereo not given) | 15.7
Cc1cnc(Nc2cc(C3CCN(C(=O)C4CCCCC4)CC3)ccn2)s1 | -0.875
Cc1cc(C)nc(NS(=O)(=O)c2ccc(NC(=O)CCl)cc2)n1 | 3.25

SMILES | relative growth recovery [%]
Cc1cnc(Nc2cccc(C(C(=O)N(C)C)C3CCN(C(=O)[C@H](CC(C)C)NC(=O)OC(C)(C)C)CC3)n2)s1 (stereo not given in full) | 3.71
CC(C)(C)C(=O)N1CCC(Cc2ccc(Nc3ncc(-c4ccc(F)cc4)s3)nc2)C1 (stereo not given) | 1.68
COc1ccc(Cl)c2c1[nH]c1nc(SCC(=O)Nc3ccc(Cl)cc3)nnc12 | 2.88
O=C1CCC(N2C(=O)c3cc(F)c(N4CCN(CCC5CCNCC5)CC4)cc3C2=O)C(=O)N1 (stereo not given) | -5.21
Cc1csc(Nc2cccc(C3CCN(C(=O)CCn4ncc5ccccc54)CC3)n2)n1 | 6.91
CCC(=O)Nc1cccc(C(=O)Nc2ccc(S(=O)(=O)Nc3ncccn3)cc2)c1 | -1.9
CCN1C(=O)c2cccc3c(S(=O)(=O)Nc4ccccn4)ccc1c23 | -3.48
CC(C)(C)c1ccccc1OCC(=O)Nc1ccc(S(=O)(=O)Nc2ncccn2)cc1 | 1.46
CCCc1cnc(Nc2cccc(C3CCN(C(=O)C4CCCCC4)CC3)n2)s1 | -15.7
CC(C)C(=O)Nc1cccc(C(=O)Nc2ccc(S(=O)(=O)Nc3ncccn3)cc2)c1 | 6.37
CCOC(=O)CCC(=O)Nc1ccc(S(=O)(=O)Nc2cc(OC)nc(OC)n2)cc1 | 0.685
CC(=O)N1CCC(Cc2cccc(Nc3ncc(C)s3)n2)CC1 | -11.3
Cc1cc(OCC(=O)N2CCCC2c2cccc(Nc3nccs3)n2)c2ccccc2n1 (stereo not given) | 0.24
O=C(Nc1ccc(S(=O)(=O)Nc2ccccn2)cc1)c1cccc(Cl)c1 | -1.96
Cc1cccc(NS(=O)(=O)c2ccc([N+](=O)[O-])cc2)n1 | 0.58
Cc1cnc(Nc2cccc(C3CN(C(=O)c4nccn4C)CCO3)n2)s1 (stereo not given) | -1.17
Cc1cnc(Nc2cccc(C3CCCN3C(=O)c3ccccc3)n2)s1 (stereo not given) | -2.77
Cc1cnc(Nc2cccc(C3CCN(C(=O)C4C5C=CC(C5)C4C(=O)NCCO)CC3)n2)s1 (stereo not given) | -18.2
Cc1cc(C)nc(NS(=O)(=O)c2ccc(NC(=O)COc3ccc(Cl)cc3)cc2)n1 | 3.77
CN1C(=O)c2cccc3c(S(=O)(=O)Nc4ccccn4)ccc1c23 | -7.02
Cn1nccc1/C=C/C(=O)N1CCCC(c2cc3ccccc3c(Nc3nccs3)n2)C1 (stereo not given) | -10.2
COc1c(C)cccc1C(=O)N1CCCC1c1cccc(Nc2nc(C)cs2)n1 (stereo not given) | -2.85
Cc1nonc1CC(=O)N1CCC(c2cccc(Nc3nc(C)c(C)s3)n2)CC1 | 13.2
COc1cc(NS(=O)(=O)c2ccc(NC(=O)COc3cccc(C)c3)cc2)nc(OC)n1 | -18.6

SMILES | relative growth recovery [%]
CCOc1ccccc1OCC(=O)Nc1ccc(S(=O)(=O)Nc2ccccn2)cc1 | -1.77
Cc1ccc(/C=C/C(=O)Nc2ccc(S(=O)(=O)Nc3cc(C)nc(C)n3)cc2)cc1 | -1.54
COc1cc(NS(=O)(=O)c2ccc(NC(=O)C(C)(C)C)cc2)nc(OC)n1 | 2.35
O=S(=O)(Nc1ccc(S(=O)(=O)Nc2ncccn2)cc1)c1ccc(Cl)cc1 | -4.2
O=C(CSc1nnc2c(n1)[nH]c1ccccc12)Nc1cc(Cl)cc(Cl)c1 | -18.7
CCCc1cnc(Nc2cccc(C3CCN(C(=O)C4CCCCN4C(=O)COC)CC3)n2)s1 (stereo not given) | -4.5
Cc1ccc(CC(=O)N2CCOC(c3cccc(Nc4nccs4)n3)C2)cc1C (stereo not given) | 15.9
O=C(O)CCOCCOCCOCCOCCNc1cc2c(cc1F)C(=O)N(C1CCC(=O)NC1=O)C2=O (stereo not given) | 1.62
CC(C)(C)C(=O)NC1(C(=O)N2CCC(c3cccc(Nc4ncc(Cl)s4)n3)CC2)CCCCC1 | -18.6
Cc1cc(C)nc(NS(=O)(=O)c2ccc(NC(=O)CSc3nc4ccccc4[nH]3)cc2)n1 | 3.98
CCC(CC)C(=O)Nc1ccc(S(=O)(=O)Nc2nccc(C)n2)cc1 | -0.49
O=C1CCC(N2C(=O)c3ccc(NCCCn4cc(C(=O)O)cn4)cc3C2=O)C(=O)N1 (stereo not given) | -3.6
Cc1cnc(C(=O)N2CCC(c3cccc(Nc4nccs4)n3)CC2)cn1 | -0.78
COc1cc(NS(=O)(=O)c2ccc(NC(=S)NC(=O)/C=C/c3ccc(F)cc3)cc2)nc(OC)n1 | -16.2
CC(=O)N1CCCCC1c1csc(Nc2ccccn2)n1 (stereo not given) | 1.36
COc1ccc(Cl)cc1C(=O)Nc1ccc(S(=O)(=O)Nc2nccc(C)n2)cc1 | -1.7
Cc1ccc2[nH]c3nc(SCC(=O)Nc4cccc(Cl)c4C)nnc3c2c1 | -3
COC(C)(C)C(=O)N1CCOC(c2cccc(Nc3ncc(C)s3)n2)C1 (stereo not given) | -8.72
O=C(CSc1nc2cc(Cl)ccc2[nH]1)Nc1ncccn1 | -1.69
Cc1csc(Nc2cccc(C3CCCN3C(=O)Cc3c[nH]c4ccccc34)n2)n1 (stereo not given) | 11.2
CC(C)c1cnc(Nc2cccc(C3CCN(C(=O)C4CCCCC4)CC3)n2)s1 | 2.44
Cc1cccc(OC(C)(C)C(=O)N2CCOC(c3cccc(Nc4ncc(C)s4)n3)C2)c1 (stereo not given) | 0.545
CC(C)(C)CC(=O)NC1(C(=O)N2CCC(c3cccc(Nc4ncc(Cl)s4)n3)CC2)CCCCC1 | -16.4
